“And” between values parts separate entries of the source, which are not always exact repeats. Equal entries are not always repeated. The campaign covered roughly 390,000 compounds. About 4,000 (1%) were called active. This list was built around the results that the source calls inconclusive (neither active nor inactive); the mix of calls is not that of the screen. Calls come from the whole dose curve; as a rule, active = well fitted inhibition curve with a large enough effect; inconclusive = small, poorly fitted or top-dose-only effect; inactive = no such curve, though single readings can be large or run the other way. Potencies beside an inconclusive call are fits to weak or partial responses and may not hold up.
The compounds below were run against Thioredoxin reductase 1, cytoplasmic (Rattus norvegicus) (UniProt O89049) (assay: qHTS Assay for Inhibitors of Mammalian Selenoprotein Thioredoxin Reductase 1 (TrxR1): qHTS). Conditions: recombinant rTrxR1, NADPH fluorescence consumption, selenite substrate; series mostly up to 114 µM; activity change, negative = inhibition: at the top concentration.
How it was run: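 Rat TrxR1 (90 nM in the dispensed reagent) was pre-reduced with 400 uM NADPH for 5 min at room temperature, then incubated with compound for 15 min. After 400 uM selenite was added, NADPH fluorescence (Ex 340/Em 450 nm) was followed for 8 min.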
% is set by controls: 0 for no effect and ±100 for the full control effect; potency is the fitted concentration of half-maximal effect; tags give direction and shape of the fitted curve.
Note: nearly all actives have a fitted effect of over 65% in size.

Sequence of UniProt O89049 (O89049 whole entry, looked up): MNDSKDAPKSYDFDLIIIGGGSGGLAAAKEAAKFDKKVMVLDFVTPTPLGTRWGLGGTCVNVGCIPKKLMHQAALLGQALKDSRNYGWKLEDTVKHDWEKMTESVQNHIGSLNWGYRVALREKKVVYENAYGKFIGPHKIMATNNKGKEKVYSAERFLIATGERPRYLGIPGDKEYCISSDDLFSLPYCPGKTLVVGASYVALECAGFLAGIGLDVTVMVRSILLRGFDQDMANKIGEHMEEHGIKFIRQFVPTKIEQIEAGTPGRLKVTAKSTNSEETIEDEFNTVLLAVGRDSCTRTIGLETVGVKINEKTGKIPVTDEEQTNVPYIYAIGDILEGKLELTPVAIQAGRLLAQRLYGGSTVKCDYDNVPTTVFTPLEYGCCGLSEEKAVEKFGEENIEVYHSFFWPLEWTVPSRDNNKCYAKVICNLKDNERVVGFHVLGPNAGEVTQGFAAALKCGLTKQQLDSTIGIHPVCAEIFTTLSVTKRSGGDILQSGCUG

SMILES | Potency | activity change, negative = inhibition
COC(=O)[C@@H]1C(OC(=O)c2ccccc2)CC2CCC1N2C (stereo not given in full) | inconclusive: 89.1 µM [inhibitor, partial curve, poor fit] | 
CC(C)N(C(=O)CCl)c1ccccc1 | active: 20 µM | 
CC(C)c1ccc(N2C(=O)NC(=O)/C(=C/c3cnc(-c4ccccc4)nc3)C2=O)cc1 | active: 3.98 µM | 
Cc1ccc(CN(Cc2ccccc2)C(=S)NCC(=O)N2CCC3(CC2)OCCO3)o1 |  | inactive: 3.46% [at 57.1 µM]
CCOc1ccccc1N1C(=O)NC(=O)/C(=C/c2ccc3c4c(cccc24)CC3)C1=O | active: 22.4 µM | 
C=CCc1cc(C=C2C(=O)NC(=O)NC2=O)cc(OC)c1OCc1ccc(C(=O)O)cc1 | inconclusive: 11.2 µM [inhibitor, partial curve, poor fit] | 
O=C1NCCN(Cc2cccc(Oc3ccccc3)c2)C1CC(=O)N1CCCCC1 (stereo not given) | inconclusive: 44.7 µM [inhibitor, partial curve] | 
O=[N+]([O-])c1ccc(Sc2nc3ccccc3o2)c([N+](=O)[O-])c1 | active: 0.631 µM | 
O=[N+]([O-])c1ccc(N2CCCC2)cc1N/N=C1\CN2CCC1CC2 |  | inactive: -17.6%
O=[N+]([O-])c1ccccc1-c1cc(-c2ccccc2)cc(-c2ccccc2)[n+]1Cc1ccccc1Cl |  | inactive: -12.5%
C=CCN1C(=O)NC(=O)/C(=C/c2ccc(OC)c(CSc3ccccn3)c2)C1=O | inconclusive: 12.6 µM [inhibitor, partial curve, poor fit] | 
O=C(c1ccccc1F)c1cn(Cc2ccccc2)c2ccccc12 | inconclusive: 89.1 µM [inhibitor, partial curve, poor fit] | 
C[C@H]1[C@H](OC(=O)CCC(=O)NCc2ccc(C(=O)O)cc2)O[C@@H]2O[C@@]3(C)CC[C@H]4[C@H](C)CC[C@@H]1C24OO3 |  | inactive: -8.74%
CCOc1ccc(N2C(=O)NC(=O)/C(=C\c3ccc(N4CCOCC4)cc3C)C2=O)cc1 | inconclusive: 56.2 µM [inhibitor, partial curve] | 
O=[N+]([O-])c1cc(O)c(O)c([N+](=O)[O-])c1 | inconclusive: 70.8 µM [inhibitor, partial curve, poor fit] and inconclusive: 20 µM [inhibitor, full curve] | 
COc1ccc(CCn2c(NN=C3CCCCC3)nc3c2c(=O)[nH]c(=O)n3C)cc1 | inconclusive: 56.2 µM [inhibitor, partial curve] | 
CCN(CC)S(=O)(=O)c1ccc(NN=C(C#N)C#N)cc1 | inconclusive: 20 µM [inhibitor, full curve, poor fit] | 
COc1ccc(C(=O)NC(=S)N2C[C@H]3C[C@H](C2)c2cccc(=O)n2C3)cc1OC | inconclusive: 89.1 µM [inhibitor, single point] | 
COc1ccccc1C=C1C(=O)NC(=S)NC1=O | inconclusive: 5.01 µM [inhibitor, full curve] | 
CCN1CCN(Cc2cc(Br)ccc2O)CC1 |  | inactive: 0.716%
CC1=C(C/C(C)=C/c2ccccc2)/C(=C/CO)[C@@H]2OC(=O)O[C@]2(C)C12CC2 | inconclusive: 22.4 µM [inhibitor, partial curve, poor fit] | 
CCOC(=O)c1ccc(N2C(=O)CC(N3CCC(O)(c4ccc(Cl)cc4)CC3)C2=O)cc1 (stereo not given) | inconclusive: 39.8 µM [inhibitor, partial curve] | 
CCOC(=O)C1=Nc2ccccc2/C1=C\c1c(O)n(C)c(=O)n(C)c1=O | inconclusive: 44.7 µM [inhibitor, partial curve] | 

SMILES | Potency | activity change, negative = inhibition
CC1CN(O)C2CCc3nonc3C12O (stereo not given) | inconclusive: 89.1 µM [inhibitor, single point] | 
CCOC(=O)[C@@]1(C#N)[C@@H]2C=CC(C(N)=O)=CN2[C@@H](C(N)=O)[C@@H]1c1cccc(Cl)c1 | inconclusive: 39.8 µM [inhibitor, single point] | 
CCCCN1C(=O)/C(=C\c2ccco2)C(=O)N(CCc2ccccc2)C1=O | inconclusive: 50.1 µM [inhibitor, partial curve, poor fit] | 
N#CC(C#N)=Cc1ccc(-c2ccccc2F)o1 | inconclusive: 89.1 µM [inhibitor, single point] | 
COc1cc(C(c2c(O)c3ccccc3oc2=O)c2c(C)n(C)n(-c3ccccc3)c2=O)ccc1O (stereo not given) | inconclusive: 89.1 µM [inhibitor, single point] and inconclusive: 25.1 µM [inhibitor, full curve] | 
COc1cc(N)ccc1Cc1ccc(N)cc1OC | inconclusive: 50.1 µM [inhibitor, partial curve] | 
COc1ccc(CN2C(=O)NC(=O)/C(=C\c3ccco3)C2=O)cc1 | inconclusive: 79.4 µM [inhibitor, partial curve] | 
c1cncc(CNCCc2c[nH]c3ccccc23)c1 |  | inactive: 13%
O=[N+]([O-])/C=C/c1ccc2c(c1)OCO2 | active: 10 µM | 
COc1ccc2c(c1)CC1(CN2C)C(=O)NC(=O)N(CCc2ccccc2)C1=O (stereo not given) | inconclusive: 39.8 µM [inhibitor, single point] | 
CCCCn1c(NC(=O)c2ccco2)c(C(=O)OCC)c2nc3ccccc3nc21 | inconclusive: 11.2 µM [inhibitor, full curve] | 
CCOc1cc(C=C2C(=O)NC(=O)NC2=O)ccc1OS(=O)(=O)c1ccccc1 | inconclusive: 8.91 µM [inhibitor, partial curve, poor fit] | 
O=C(c1cc2cc(Cl)ccc2[nH]1)N1CCC2(CC1)OCCO2 | active: 44.7 µM | 
O=C1NC(=O)C(=Cc2csc3ccccc23)C(=O)N1 | inconclusive: 10 µM [inhibitor, partial curve, poor fit] | 
CCOc1cccc(N2C(=O)/C(=C/c3ccco3)C(=O)NC2=S)c1 | inconclusive: 50.1 µM [inhibitor, partial curve] | 
Cc1[nH]n(-c2ccccc2)c(=O)c1C(c1ccc([N+](=O)[O-])cc1)c1c(C)[nH]n(-c2ccccc2)c1=O | inconclusive: 56.2 µM [inhibitor, partial curve, poor fit] | 
COc1cc(/C=C2\C(=O)NC(=O)N(c3ccccc3)C2=O)cc(OC)c1OC | inconclusive: 31.6 µM [inhibitor, single point] | 
O=C1NC(=O)C(=Cc2ccccc2Oc2ccc(F)cc2)C(=O)N1 | active: 12.6 µM | 
O=c1c2ccccc2nc(-c2ccoc2)n1-c1ccccc1Cl | inconclusive: 79.4 µM [inhibitor, partial curve] | 
Cc1ccc(C2CC(=O)C(C=NCCN3CCN(C(=O)Cc4ccccc4)CC3)=C(O)C2)cc1 (stereo not given) |  | inactive: 6.9% [at 57.1 µM]
CC1C(c2cccs2)=[N+]([O-])C(C)(C(=O)c2ccc(F)cc2)N1O (stereo not given) | inconclusive: 22.4 µM [inhibitor, partial curve, poor fit] | 
Cc1ccc(/C=C2\C(=O)NC(=S)N(c3ccc(F)cc3)C2=O)o1 | inconclusive: 11.2 µM [inhibitor, full curve] | 

Reference: PubChem BioAssay AID588453 (National Center for Advancing Translational Sciences (NCATS), 2011)
